Some of the results follow. One pool of 16,384 single-stranded DNAs met each Rep nickase domain in vitro at 3 µM enzyme and 37 °C for 1 h; the strands have 90 letters, of which the middle is given. Numbers give uncut DNA relative to the enzyme-free pool, as log2; more negative means more cut, near 0 not cut, and no call is made. Reads are scaled to the total; uncut strands gain when others are lost, and binding without cutting may add a little.
test system: T1, Rep nickase domain of tomato golden mosaic virus; assay: uncleaved DNA left, log2 of reads against the no-enzyme library (log2 ratio); higher = less cleavage (more negative = more Rep cleavage of the k-mer); sequences stand for … in CTCGTCCG…ACCGGAGA
T1 sequence (Rep 1-124, printed without the tag): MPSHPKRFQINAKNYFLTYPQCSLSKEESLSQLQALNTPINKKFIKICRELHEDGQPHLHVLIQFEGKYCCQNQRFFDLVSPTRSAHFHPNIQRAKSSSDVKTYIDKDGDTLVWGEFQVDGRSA
Description: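 A pool of 90-nt single-stranded DNAs with seven random bases just before the constant AC of the nick site (name = the seven bases) was cut by 3 µM recombinant His6-SUMO-tagged Rep nickase domain (300 nM DNA, 50 mM HEPES pH 8.0, 50 mM NaCl, 1 mM MnCl2, 1 h, 37 °C, three replicates). Uncut DNA was amplified and sequenced.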

Row | Sequence | uncleaved DNA left (log2)
1 | GTGCGTG | 0.0196
2 | GAAGGTA | 0.0723
3 | ACAGGAT | 0.182
4 | GGCGACC | 0.005
5 | CCTATCT | 0.0197
6 | CTCCTGC | -0.107
7 | GATGCTC | 0.00767
8 | TTTGGCT | -0.117
9 | GGACGTC | 0.042
10 | CCAATAC | 0.0502
11 | AAATCAC | -0.0177
12 | ACCACAT | 0.0745
13 | GTGCGAT | 0.00655
14 | CGTTGAA | -0.132
15 | GCGGCAG | 0.113
16 | GATTTCC | 0.0581
17 | TATTATG | 0.137
18 | ATGCTCT | -0.244
19 | GAGCCAT | 0.00317
20 | TTGATAG | 0.00584

Row | Sequence | uncleaved DNA left (log2)
21 | ACGCATA | -0.00674
22 | TCTTACA | -0.364
23 | CTACCTT | 0.143
24 | AGACTGA | -0.00294
25 | TCTGCCA | -0.179
26 | GTATCGT | 0.197
27 | CTATAGA | 0.0323
28 | GTCTCAC | 0.182
29 | CCTAGTA | 0.059
30 | GCTTTCA | 0.0865
31 | TGAGAAG | 0.116
32 | TGGTCGA | -0.0131
33 | ACGGATA | 0.0465
34 | CATTTCC | -0.178
35 | TTACATC | -0.169
36 | CCTGGTT | -0.0474
37 | AAACTTA | 0.131
38 | ACAACGC | -0.0334
39 | GCAAAGT | 0.0136
40 | CTCTCGG | 0.249

Source: the supplement of paper PMC7826260
